We go through 1 molecule from PubChem BioAssay AID248 (DTP/NCI, 2004).

Inconclusive results and toxic doses are left out. Not every entry of the source has a single result; some have several. The list is limited to them. An entry can have further records. Values given together differ, and nothing given here explains why; some may be repeats, others may stem from another dose, organism or construct than stated.

For this assay, the system named is L1210 leukemia ip in BDF1 mice, survival T/C. The assay is described as follows: NCI In Vivo Anticancer Drug Screen. Data for tumor model L1210 Leukemia (intraperitoneal) in B6D2F1 (BDF1) mice. The settings on record: endpoint: mean survival time; dose: 400.0 mg/kg/injection; schedule: Q01DX001 (ip); vehicle: carboxymethylcellulose (CMC); higher = longer survival.

On to `CCCCCN(C)/N=N/c1nc[nH]c1C(N)=O`, for which the T/C was 97 % of control and 170 % of control.
